From the BET-seq Pho4 binding data (Le et al. 2018)
The list shows a part of the results. These are noisy estimates, calculated here from bound and input reads.

target: T1, Pho4 (S. cerevisiae) (UniProt P07270); assay: relative binding free energy (BET-seq); higher = weaker binding; conditions: reference: library average
T1 sequence: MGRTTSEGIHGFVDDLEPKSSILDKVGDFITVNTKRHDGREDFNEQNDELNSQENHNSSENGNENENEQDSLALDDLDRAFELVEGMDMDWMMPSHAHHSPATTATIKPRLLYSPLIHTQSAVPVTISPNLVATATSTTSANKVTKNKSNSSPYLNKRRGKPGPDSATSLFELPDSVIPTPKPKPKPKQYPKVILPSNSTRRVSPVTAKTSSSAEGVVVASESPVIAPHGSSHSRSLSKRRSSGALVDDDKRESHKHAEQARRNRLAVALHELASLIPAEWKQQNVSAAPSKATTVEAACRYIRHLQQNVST

Sequence	relative binding free energy [kcal/mol]
TGGTTCACGTGTGGTA	0.32
CTTCTCACGTGTTTTG	0.19
TTGCACACGTGATTGG	0.13
TCAAGCACGTGTTGGT	-0.17
ATTTTCACGTGAGTAA	0.25
GGGTACACGTGGTGTG	0.09
GTGGCCACGTGAGTGA	0.24
CTAATCACGTGATTTT	0.32
TGAATCACGTGAGGTT	0.4
GTTTTCACGTGTTCGC	0.4
TCAAACACGTGTGGGT	0.15
ATTTGCACGTGGGGAC	-0.09
TAAAGCACGTGGCGGG	-0.24
ACATTCACGTGGATGG	0.29
CTGGGCACGTGTGTTT	-0.05
GCGGGCACGTGAGGAA	0.12
TAGTACACGTGCGGGT	0.1
GGGCGCACGTGGCGGA	-0.21
TTGTTCACGTGCGTCT	0.34
ATTGGCACGTGTGCCG	-0.14
TAAGTCACGTGAGGGT	0.45
TTCAGCACGTGTCGGT	-0.11
AATGCCACGTGGGATG	-0.11
TGGCTCACGTGACAGG	0.36
TGCGTCACGTGTAAAG	0.12

Sequence	relative binding free energy [kcal/mol]
CGATGCACGTGTGGTA	-0.14
GTTGGCACGTGGACGC	0.05
AGTTTCACGTGGTGAG	0.43
TATTGCACGTGGGTGG	-0.07
GTGCGCACGTGGTGTT	-0.05
TCTCGCACGTGGTTGG	-0.01
AGGGACACGTGGGTGA	-0.09
AGAATCACGTGTAAGG	0.28
GTGATCACGTGAGAGT	0.29
TTATGCACGTGGGGCA	-0.18
AGTTTCACGTGTATGT	0.26
TGTCGCACGTGGTTGA	-0.05
TCTGACACGTGGGTTA	-0.02
TAGTCCACGTGTGGGT	-0.12
TTTTACACGTGAGGGT	0.29
CGTTTCACGTGCTGGA	0.3
TGGCGCACGTGTCTGG	-0.18
TGGGCCACGTGTTGCT	-0.05
TAATGCACGTGGGTAA	-0.14
ATTTGCACGTGAAGGC	0.17
CGGGGCACGTGTACGG	-0.07
CTGGACACGTGTGGAG	0.14
TGGCACACGTGAATGG	0.23
CTCTGCACGTGGTGGT	-0.15
TTACGCACGTGCGTTT	-0.03

Sequence	relative binding free energy [kcal/mol]
GGTGTCACGTGGGTCA	-0.05
ACGGTCACGTGGTAGG	0.09
TAAGTCACGTGAGGCG	0.3
AGTGACACGTGGTAAG	-0.18
GAGCACACGTGTAGGG	0.16
TGTAGCACGTGGTGTT	-0.13
GTGGCCACGTGGCTGT	-0.2
AAAGGCACGTGCGCGG	-0.23
TTCTGCACGTGGGGTC	-0.13
TGCTACACGTGGTATG	-0.02
GACTTCACGTGTTAGG	0.42
TATTGCACGTGGCGGT	-0.2
TACGGCACGTGTTTGT	-0.03
GGTGACACGTGAGGTT	0.29
TCCATCACGTGTGGGT	0.29
CGTTTCACGTGGGGTT	0.2
GGGGGCACGTGCCGGG	-0.23
AAGAGCACGTGAGTAT	0.18
TAGTCCACGTGGTAGG	0
GTATTCACGTGTTGGG	0.33
ATTTCCACGTGTGGTA	0.15
TTAAGCACGTGGGTTC	-0.26
ATGGACACGTGCGGGA	-0.04
GTGATCACGTGGGGCA	-0.16
CTTATCACGTGATTAT	0.21

Sequence	relative binding free energy [kcal/mol]
TATGTCACGTGCTGTC	0.12
CTGTGCACGTGGGCAG	-0.28
TATCTCACGTGTGTGG	0.3
TTACTCACGTGGATTG	0.18
ATTAGCACGTGGTGGC	-0.17
ATGCTCACGTGTGTGA	-0.01
TTGGGCACGTGGCAGT	-0.24
TGTTCCACGTGGGCTT	-0.19
GGTGACACGTGAATTG	0.36
TTGGCCACGTGGTAAG	-0.13
TGAGGCACGTGCGGTT	-0.14
CTTTCCACGTGGGGTT	-0.07
ATAGACACGTGGTTGA	-0.05
GCGTGCACGTGGTACG	-0.09
TGAGTCACGTGCGGAA	0.16
CTATACACGTGATTGT	0.16
GGGTGCACGTGAATGA	0.37
TCAATCACGTGGGATT	0.18
TTGCGCACGTGTGCAT	-0.15
TTATCCACGTGAAGGT	0.25
TTCATCACGTGGTGAT	-0.04
GGTGGCACGTGGAGGA	0.04
CTTGTCACGTGCATTG	0.14
TGTTGCACGTGTTATC	-0.03
TGTAACACGTGAGGTC	0.32

Sequence	relative binding free energy [kcal/mol]
TTTGGCACGTGTCTTA	-0.05
CGTATCACGTGGGGGT	0.12
ATTCGCACGTGGTTAT	-0.14
GAGGGCACGTGGACTG	-0.01
GTAAGCACGTGTAAGA	0.14
TGAGTCACGTGGTCTG	0.11
GGATTCACGTGATCGT	0.35
ATATTCACGTGTACAG	0.32
GCGGACACGTGGTTAG	0
TGAGGCACGTGAGGAG	0.18
AGAGGCACGTGGATAA	-0.04
CGGCACACGTGAGGGC	0.38
TCCTTCACGTGGAGGG	0.24
TTAGGCACGTGGATGT	-0.23
GTACTCACGTGATGTG	0.37
GGTTTCACGTGTTAAG	0.3
TTAGCCACGTGGTAAT	-0.06
CGCGTCACGTGTTTTG	0.12
TTAATCACGTGTTCTT	0.02
GTGGTCACGTGGAACG	0.17
TTTGTCACGTGGGTTC	0.05
TGTCTCACGTGGTTGG	0.23
TTTAGCACGTGGAGAA	0.07
ATTGGCACGTGGAGGT	-0.1
TGTATCACGTGGAGTG	0.09

Sequence	relative binding free energy [kcal/mol]
GCTTTCACGTGGGGAC	0.38
CGGTGCACGTGGGTCC	-0.08
GGTAGCACGTGCGGCT	0.06
TGTCGCACGTGCGGAG	-0.21
AGAGTCACGTGGAGGG	0.04
AGTGCCACGTGTAGAG	-0.11
CGAATCACGTGGGTGG	0.08
GGGATCACGTGACGTA	0.45
GGTACCACGTGGGGGT	-0.22
CATATCACGTGATTTG	0.19
GACGGCACGTGTATGG	-0.19
GGAGTCACGTGGCGGA	0.15
GGTGTCACGTGGTGTT	0.18
TAGGGCACGTGTTTGG	0
TCTGACACGTGGGAGG	-0.11
TTCGCCACGTGGGGGG	-0.21
TGATGCACGTGCCTGG	0
TGAGGCACGTGAGGCT	-0.06
AGAATCACGTGTTGGT	0.14
AGGTTCACGTGACTGT	0.51
TTGGTCACGTGGCAAT	0.12
